“And” between values parts separate entries of the source, which are not always exact repeats. Equal values may be shown once. About 230 (0.21%) of roughly 110,000 compounds showed an effect of 50% or more. This is one part of the list.
These molecules were tested against DPAP1 (Plasmodium falciparum, UniProt Q8IIJ9) (assay: primary screen, percent inhibition; read by cleavage of a fluorogenic dipeptide substrate; higher = more effect of the substance).
Chain of DPAP1 (Q8IIJ9 whole entry, looked up): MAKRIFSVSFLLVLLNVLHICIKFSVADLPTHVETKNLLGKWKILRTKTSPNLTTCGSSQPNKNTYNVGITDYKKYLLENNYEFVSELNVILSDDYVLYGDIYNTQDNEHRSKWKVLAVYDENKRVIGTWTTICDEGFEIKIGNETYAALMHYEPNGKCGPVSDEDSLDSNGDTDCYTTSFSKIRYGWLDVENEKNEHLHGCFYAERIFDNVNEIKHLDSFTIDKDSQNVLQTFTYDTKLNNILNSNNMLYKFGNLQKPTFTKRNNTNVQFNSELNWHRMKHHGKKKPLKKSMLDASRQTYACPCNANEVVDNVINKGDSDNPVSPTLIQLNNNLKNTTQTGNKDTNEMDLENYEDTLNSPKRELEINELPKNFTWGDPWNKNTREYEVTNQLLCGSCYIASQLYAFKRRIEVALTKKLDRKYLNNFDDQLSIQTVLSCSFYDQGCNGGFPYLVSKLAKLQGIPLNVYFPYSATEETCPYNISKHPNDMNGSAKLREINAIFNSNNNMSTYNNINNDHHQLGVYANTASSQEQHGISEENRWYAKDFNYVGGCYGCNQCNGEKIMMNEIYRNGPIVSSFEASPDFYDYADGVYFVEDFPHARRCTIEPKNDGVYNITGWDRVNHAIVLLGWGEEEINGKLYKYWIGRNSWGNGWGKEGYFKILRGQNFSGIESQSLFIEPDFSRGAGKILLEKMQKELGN
Set-up: species or system P. falciparum D10 trophozoite lysates; single well
For CN1CCN(Cc2c(NC(=O)c3ccc(F)cc3)sc3c2CCC3)CC1, the “% Inhibition @ 10 uM” value was 0.709%.
Cc1ccc(-c2onc(C)c2C)cc1S(=O)(=O)N(C)C1CCCCC1 was tested, and the “% Inhibition @ 10 uM” value was 12%.
With Cc1ccc(S(=O)(=O)Cc2ccc(C(=O)NCCCN3CCN(C)CC3)o2)cc1 the “% Inhibition @ 10 uM” value was 0.458%.
With COc1ccc(-c2sc(C(=O)Nc3ccccc3)cc2CC(=O)O)cc1 the “% Inhibition @ 10 uM” value was -2.72%.
In the case of CC(CNc1ccc(Oc2ccccc2)cc1)C(=O)O (centres unmarked), the “% Inhibition @ 10 uM” value was -10.9%.
Cc1nnc2c(NCC3CCCO3)nc3ccc(C(=O)c4ccccc4)cc3n12 (centres unmarked) was tested, and the “% Inhibition @ 10 uM” value was 0.454%.
In the case of O=C(Nc1ccc(NC(=O)c2ccc(Br)o2)cc1)c1ccco1, the “% Inhibition @ 10 uM” value was -0.303%.
With CCN1CCCC1CNC(=O)c1cc2c(=O)oc3ccc(C)cc3c2s1 (centres unmarked) the “% Inhibition @ 10 uM” value was 2.78%.
CC(C)(C)CC(C)(C)NCC(O)COCc1ccccc1 (centres unmarked) was tested, and the “% Inhibition @ 10 uM” value was -4.06%.
In the case of CC(=O)N[C@H]1[C@@H](OCc2ccccc2)O[C@H](CO)[C@@H](O)[C@@H]1OC(=O)c1ccccc1, the “% Inhibition @ 10 uM” value was -6.44%.
For Cc1ccc(C)c(CN2CCCN(C(=O)c3nn(C)c4c3COc3ccccc3-4)C2)c1, the “% Inhibition @ 10 uM” value was -1.72%.
For CC(C)(C)NS(=O)(=O)c1csc(C(N)=O)c1, the “% Inhibition @ 10 uM” value was 5.34%.
For Cc1ccccc1C(=O)Nc1cccc(NC(=O)c2ccccc2C)c1, the “% Inhibition @ 10 uM” value was 5.92% and 3.72%.
COc1cc(C2C(C#N)=C(N)Oc3[nH]nc(-c4cccs4)c32)cc(Br)c1O (centres unmarked) was tested, and the “% Inhibition @ 10 uM” value was -4.6%.
CCc1c(C)sc(NC(=O)c2cccc(OC)c2OC)c1C#N was tested, and the “% Inhibition @ 10 uM” value was -2.68%.
O=C(O)Cn1ncc2c1-c1ccoc1CC2 was tested, and the “% Inhibition @ 10 uM” value was -1.7%.
With Cc1ccc(-c2nc3cnn(-c4ccccc4)c(O)c-3n2)cc1 the “% Inhibition @ 10 uM” value was 2%.
In the case of CC1CCCN(c2cc(N3CCCC(C)C3)c3nonc3c2[N+](=O)[O-])C1 (centres unmarked), the “% Inhibition @ 10 uM” value was 2.65%.
In the case of COc1ccc(C(=O)Nc2cc(Cl)ccc2C)cc1OC, the “% Inhibition @ 10 uM” value was 0.0035%.
In the case of O=C(NCCc1ccccc1)c1cccc(Br)c1, the “% Inhibition @ 10 uM” value was -1.77%.
With O=C(Cn1ncc2c3ccccc3nc-2c1O)N1CCC2(CC1)OCCO2 the “% Inhibition @ 10 uM” value was -2.96%.
With C=CCOc1ccc(CNc2nc[nH]n2)cc1OC the “% Inhibition @ 10 uM” value was -1.38%.
With COc1cc(OC)c(OC)cc1CN1CCN(Cc2ccccn2)CC1 the “% Inhibition @ 10 uM” value was -1.11%.
With COc1cccc(C(=O)C2=C(O)C(=O)N(CCc3ccc(OC)c(OC)c3)C2c2cccnc2)c1 (centres unmarked) the “% Inhibition @ 10 uM” value was -3.04%.
For Cc1cccc(NC(=O)CN2C(=O)N/C(=C/c3cc(C)n(-c4ccccn4)c3C)C2=O)c1, the “% Inhibition @ 10 uM” value was 6.86%.
CCOc1cc(C2C(C(C)=O)=C(O)C(=O)N2CCCN(CC)CC)ccc1O (centres unmarked) was tested, and the “% Inhibition @ 10 uM” value was 3.16%.
COc1ccc(C)cc1NC(=O)c1c(C)c(C)c(C)c(C)c1C was tested, and the “% Inhibition @ 10 uM” value was 0.162%.
With O=C(CCNc1c(N2CCCC2)c(=O)c1=O)NC1CCCc2ccccc21 (centres unmarked) the “% Inhibition @ 10 uM” value was -5.37%.
In the case of Cc1cc(C)cc(-n2nnc(-c3nc(-c4ccccc4C)no3)c2N)c1, the “% Inhibition @ 10 uM” value was 2.19%.
For O=C(Cc1ccc(Cl)cc1)Nc1ccccc1N1CCN(C(=O)c2ccccc2)CC1, the “% Inhibition @ 10 uM” value was -6.39%.
For CCC(=O)N(CCC1(c2ccccc2)CCOC(C)(C)C1)Cc1ccccc1F (centres unmarked), the “% Inhibition @ 10 uM” value was 3.38%.
With O=C1NC(=O)/C(=C\c2cccc(Cl)c2Cl)S1 the “% Inhibition @ 10 uM” value was 1.58%.
With CC1Nc2nc(NC(=O)c3cccnc3)nc(O)c2N(C(=O)c2cccnc2)C1C (centres unmarked) the “% Inhibition @ 10 uM” value was -1.04%.
In the case of CCOc1ccccc1C1C(C#N)=C(N)N(c2cccnc2)C2=C1C(=O)CC(C)(C)C2 (centres unmarked), the “% Inhibition @ 10 uM” value was -1.37%.
CN1C(=O)c2ccc(N3C(=O)c4ccc(C(=O)O)cc4C3=O)cc2C1=O was tested, and the “% Inhibition @ 10 uM” value was 0.266%.
CCOc1cccc(=O)c2c(C)n(-c3ccc(OC)cc3)c(C)c12 was tested, and the “% Inhibition @ 10 uM” value was -4.32%.
With COc1ccc(Nc2cc(-c3ccccc3)nc(-c3ccccc3)n2)cc1 the “% Inhibition @ 10 uM” value was 2.65%.
For COc1ccc(CCN2C(=O)CC(N3CCN(c4ccc(F)cc4)CC3)C2=O)cc1OC (centres unmarked), the “% Inhibition @ 10 uM” value was 0.231%.
In the case of O=C(NCc1ccccc1Cl)c1ccc2c(c1)ncn2-c1ccc(F)c(F)c1, the “% Inhibition @ 10 uM” value was 2.8%.
CCOc1ccc2nc(NC(=O)CCNS(=O)(=O)c3ccc4nc(O)ccc4c3)sc2c1 was tested, and the “% Inhibition @ 10 uM” value was 1.12%.
For O=C(COc1ccc(Cl)cc1)N1CCN(c2cccc(Cl)c2)CC1, the “% Inhibition @ 10 uM” value was -1.98%.
For Clc1ccc(N2CCN(CC3CC4C=CC3C4)CC2)cc1 (centres unmarked), the “% Inhibition @ 10 uM” value was -3.37%.
For Cc1ccc(S(=O)(=O)N(C)CC(=O)Nc2cccc(C)n2)cc1, the “% Inhibition @ 10 uM” value was 0.843%.
For Cc1ccc(S(=O)(=O)Nc2ccccc2C(N2CCN(C)CC2)N2CCN(C)CC2)cc1, the “% Inhibition @ 10 uM” value was -7.02%.
Cc1nc(Cl)c(C(=O)NCc2ccccc2)c(C)c1Cl was tested, and the “% Inhibition @ 10 uM” value was -4.35%.
With CCCOc1ccc(C(=O)C2=C(O)C(=O)N(Cc3cccnc3)C2c2ccccc2F)cc1C (centres unmarked) the “% Inhibition @ 10 uM” value was 4.74%.
In the case of CCc1nc2nc(C)cc(N3CCN(C4CCCCC4)CC3)n2n1, the “% Inhibition @ 10 uM” value was 5.9%.
COc1ccc(CCNC(=O)c2cc3c(-c4ccccc4F)nn(C)c3s2)cc1OC was tested, and the “% Inhibition @ 10 uM” value was -3.23%.
CCOC(=O)c1nnn(-c2nonc2N)c1-c1ccc(OCC)cc1 was tested, and the “% Inhibition @ 10 uM” value was 1.62%.
In the case of Cc1ccc2c(=O)c(C(=O)c3ccccc3)cn(CC(=O)NCC3CCCO3)c2n1 (centres unmarked), the “% Inhibition @ 10 uM” value was -5.67%.
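Also: 30 min substrate incubation versus DMSO and 10 µM JCP410 controls.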
